{"source": "PubChem BioAssay AID588855", "about": "(National Center for Advancing Translational Sciences (NCATS), 2011)", "note": "In all, about 410,000 compounds went through this assay and about 5,000 (1.2%) were called active. The inconclusive results got no clear call from the source; some entries with a clear call stand among them for comparison. Calls follow the shape of the dose curve; as a rule, active = well fitted inhibition curve with a large enough effect; inconclusive = small, poorly fitted or top-dose-only effect; inactive = no such curve, though single readings can be large or run the other way. Potencies of inconclusive entries are doubtful fits and often do not repeat. % is scaled to controls: 0 for no effect and ±100 for the full control effect; potency is read from the fitted curve at half-maximal effect; tags tell the direction and shape of the fitted curve.", "data": [{"assay": "qHTS for Inhibitors of TGF-b; also: nearly all actives have a fitted effect of over 65% in size", "conditions": "HepG2 CAGA-GFP TGF-b/SMAD3 reporter, GFP fluorescence, 18 h, TGF-beta stimulated, 500 pg/mL final; series mostly up to 46.1 µM; activity, negative = inhibition: at the top concentration", "outline": "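Inhibition of TGF-beta-driven CAGA-GFP reporter expression in HEPG2 cells is measured by cellular GFP fluorescence after 18 h stimulation with 500 pg/mL recombinant TGF-beta in 1% FBS medium at 37 degrees C.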", "values": [{"molecule": "CN(CC(=O)Nc1nc2ccc(F)cc2s1)S(=O)(=O)c1ccc(Cl)cc1", "Potency": "inconclusive: 8.91 µM [inhibitor, single point]"}, {"molecule": "CC(C)CC(=O)NC(=S)N1CCN(c2ccc([N+](=O)[O-])cc2Cl)CC1", "Potency": "inconclusive: 12.6 µM [inhibitor, partial curve, poor fit]"}, {"molecule": "Cc1nc2ccccn2c1C(=O)/C=C/c1ccc(F)cc1", "Potency": "inconclusive: 6.31 µM [inhibitor, single point]"}, {"molecule": "O=[N+]([O-])c1cccc(CSc2nnc(Cc3ccccc3)n2-c2ccc(F)cc2)c1", "Potency": "inconclusive: 20 µM [inhibitor, single point]"}, {"molecule": "S=c1nc2ccccc2c2nc(-c3ccccc3)[nH]n12", "Potency": "inconclusive: 2 µM [inhibitor, full curve, poor fit]"}, {"molecule": "Cc1ccc(C(=O)NC2CCCC2)cc1S(=O)(=O)N1CCCCC1", "activity, negative = inhibition": "inactive: 0%"}, {"molecule": "CCN(CC)c1cc2c(cc1F)c(=O)c(S(=O)(=O)c1ccccc1)cn2Cc1ccccc1", "activity, negative = inhibition": "inactive: -5.16%"}, {"molecule": "CC(C)Sc1cc(N2CCCC2)nc(-c2ccccc2)n1", "Potency": "inconclusive: 5.62 µM [inhibitor, single point]"}, {"molecule": "COc1ccc(CN2CCCC(C(=O)Nc3cccc(-n4cnnn4)c3)C2)c(C)c1C", "note": "(stereo not drawn)", "activity, negative = inhibition": "inactive: -1.52%"}, {"molecule": "CCOC(=O)c1oc2ccccc2c1NC(=O)Cc1cccs1", "activity, negative = inhibition": "inactive: -3.73%"}, {"molecule": "O=C1C(Cl)=C(NCCN2CCCCC2)C(=O)c2ccccc21", "Potency": "active: 1.58 µM"}, {"molecule": "O=[N+]([O-])c1cc2c(cc1/C=N/NS(=O)(=O)c1ccc(Br)cc1)OCO2", "Potency": "inconclusive: 2.24 µM [inhibitor, full curve]"}, {"molecule": "O=C1C=CC(=O)c2c(O)c(CO)c(CO)c(O)c21", "Potency": "active: 11.2 µM"}, {"molecule": "Cc1ccc(CNC(=O)CCC(=O)N2CC(C)Sc3ccccc32)cc1", "note": "(stereo not drawn)", "Potency": "inconclusive: 35.5 µM [inhibitor, single point]"}, {"molecule": "CC(=O)c1ccccc1-c1csc2ncnc(Sc3nnnn3C)c12", "Potency": "inconclusive: 11.2 µM [inhibitor, partial curve, poor fit]"}, {"molecule": "COc1ccccc1N1CCN(C(=O)CSc2nc(N)cc(=O)[nH]2)CC1", "Potency": "inconclusive: 35.5 µM [inhibitor, partial curve, poor fit]"}, {"molecule": "CC(C)C[C@H]1CN([C@@H](Cc2ccc(O)cc2)CN2CCC[C@@H]2CN2C(=S)NC[C@@H]2Cc2ccccc2)C(=S)N1CCc1ccccc1", "Potency": "inconclusive: 7.08 µM [inhibitor, full curve]"}, {"molecule": "C[C@@H]1CCC(=O)N(CC[C@H](Oc2ccccc2)c2ccccc2)CC1", "Potency": "inconclusive: 10 µM [inhibitor, single point]"}, {"molecule": "CCOC(=O)c1cccc(NC(=O)CCCn2c(C)c3cnn(-c4ccccc4)c(=O)c3c2C)c1", "Potency": "inconclusive: 20 µM [inhibitor, partial curve]"}, {"molecule": "O=C(CN1CCCCCC1)Nc1ccccc1Cl", "activity, negative = inhibition": "inactive: 2.91%"}, {"molecule": "O=C(NC1CC1)C1=C[C@@H](c2c[nH]c3ccccc23)C[C@@H](OCc2ccc(CO)cc2)O1", "Potency": "inconclusive: 28.2 µM [inhibitor, single point]"}, {"molecule": "Cc1ccc(C)c(OCCC(=O)OCC(=O)Nc2cccnc2Cl)c1", "activity, negative = inhibition": "inactive: 4.5%"}, {"molecule": "CCn1cc(C(=O)NCCC(C)C)c(=O)c2cc(F)c(N3CCN(C)CC3)cc21", "activity, negative = inhibition": "inactive: -7.47%"}, {"molecule": "CCOc1ccc(NC(=O)CCNC(=O)Cn2ccc3ccccc3c2=O)cc1", "activity, negative = inhibition": "inactive: 7.31%"}, {"molecule": "COc1ccc(CNC(=O)CSc2nnnn2C)cc1OC", "activity, negative = inhibition": "inactive: 1.6%"}, {"molecule": "COc1cc(C2CC(=O)Nc3c2c(=O)n(C)c(=O)n3C)cc(OC)c1OC", "note": "(stereo not drawn)", "Potency": "inconclusive: 3.16 µM [inhibitor, partial curve]"}, {"molecule": "Cc1cccc(Oc2c([N+](=O)[O-])c(=O)n(C)c3ccccc23)c1", "Potency": "inconclusive: 11.2 µM [inhibitor, single point]"}, {"molecule": "Cc1cc(C(=O)NCc2cccnc2)no1", "activity, negative = inhibition": "inactive: -2.48%"}, {"molecule": "CCc1nc2ccc(C(=O)N3CCN(c4ccccc4)CC3)cn2c1N(C)CCCc1ccccc1", "Potency": "inconclusive: 22.4 µM [inhibitor, single point]"}, {"molecule": "CCc1nc2ccc(C(=O)Nc3cc(-c4ccccc4)ccc3OC)cn2c1N(C=O)CCC(C)C", "Potency": "inconclusive: 35.5 µM [inhibitor, single point]"}, {"molecule": "O=C(c1ccc(C(F)(F)F)cc1)N1CCC(=O)N(C(CO)Cc2ccccc2)CC1", "note": "(stereo not drawn)", "Potency": "inconclusive: 2.51 µM [inhibitor, single point]"}, {"molecule": "O=C(OCc1cn([C@H]2C[C@H](c3ccccc3)N(Cc3cccs3)C[C@@H]2O)nn1)c1ccccc1", "activity, negative = inhibition": "inactive: -3.12%"}, {"molecule": "CN=C(Nc1cccc(Cl)c1)SC1CC(=O)N(c2ccc(OC)cc2)C1=O", "note": "(stereo not drawn)", "Potency": "inconclusive: 35.5 µM [inhibitor, single point]"}, {"molecule": "O=C(CN1CCOCC1)Nc1ncc(Cc2cccc(Cl)c2Cl)s1", "Potency": "inconclusive: 25.1 µM [inhibitor, single point]"}, {"molecule": "CC(=O)Nc1ccc(C(=O)CSc2ncn(-c3ccccc3)n2)cc1", "Potency": "active: 2.82 µM"}, {"molecule": "COc1ccc2c(Sc3ccc(Cl)cc3)c(C(=O)NCCCN3CCCCC3)[nH]c2c1", "Potency": "inconclusive: 22.4 µM [inhibitor, partial curve, poor fit]"}, {"molecule": "CC(C)CC(=O)NC(NC(=S)Nc1ccccc1)C(Cl)(Cl)Cl", "note": "(stereo not drawn)", "activity, negative = inhibition": "inactive: -13.7%"}, {"molecule": "COC(CNS(=O)(=O)c1cc2c3c(c1)CCN3C(=O)CC2)OC", "activity, negative = inhibition": "inactive: 6.65%"}, {"molecule": "CSCCC(C(=O)Nc1c(C)cccc1C)N1CCN(C/C=C/c2ccccc2)CC1", "note": "(stereo not drawn)", "Potency": "inconclusive: 20 µM [inhibitor, single point]"}, {"molecule": "CNc1cccc(-c2ccc(C(=O)N3CCOCC3)cc2)n1", "activity, negative = inhibition": "inactive: 0.876%"}, {"molecule": "CC(C)(C)c1ccc(Oc2cccc(C3CC(=O)C(C4NCCc5ccccc54)C(=O)C3n3cncn3)c2)cc1", "note": "(stereo not drawn)", "Potency": "inconclusive: 35.5 µM [inhibitor, single point]"}, {"molecule": "Cc1c(CCOC(=O)c2cc([N+](=O)[O-])cc([N+](=O)[O-])c2)sc[n+]1CC(=O)c1ccccc1", "activity, negative = inhibition": "inactive: 4.35%"}, {"molecule": "CN1CCc2cccc3c2C1Cc1ccc(O)c(O)c1-3", "note": "(stereo not drawn)", "Potency": "inconclusive: 35.5 µM [inhibitor, single point]"}, {"molecule": "Cc1cccc(NC(=O)CSc2nc3c([nH]c4ccccc43)c(=O)n2C)c1", "Potency": "inconclusive: 1.12 µM [inhibitor, full curve, poor fit]"}, {"molecule": "Cc1cc(NC(=O)CN2CCC(C)CC2)no1", "activity, negative = inhibition": "inactive: -2.31%"}, {"molecule": "COc1ccc(NC(=O)Nc2nnc(C(C)(C)C)s2)cc1", "activity, negative = inhibition": "inactive: 4.16%"}, {"molecule": "CCOC(=O)N1CCN(c2c(N3CCN(c4ccc(F)cc4)CC3)c(=O)c2=O)CC1", "activity, negative = inhibition": "inactive: -12%"}, {"molecule": "O=c1[nH]c(-c2ccccn2)nc2sc(-c3ccccc3)cc12", "Potency": "inconclusive: 1.12 µM [inhibitor, full curve, poor fit]"}, {"molecule": "COc1ccc([C@H]2C[C@H](n3cc(COC(=O)c4ccccc4)nn3)[C@@H](O)CN2Cc2cccs2)cc1", "activity, negative = inhibition": "inactive: 10.1%"}, {"molecule": "CC(C)N(C(=O)Cn1cc(S(=O)(=O)Cc2ccc(C(F)(F)F)cc2)c2ccccc21)C(C)C", "Potency": "inconclusive: 5.62 µM [inhibitor, single point]"}, {"molecule": "O=C(NCCn1cc(SCc2ccc(F)cc2)c2ccccc21)c1ccccc1F", "Potency": "inconclusive: 22.4 µM [inhibitor, single point]"}, {"molecule": "O=C(Nc1ccnn1C1CCN(Cc2ccc3nonc3c2)CC1)c1cccc(F)c1", "Potency": "inconclusive: 20 µM [inhibitor, partial curve, poor fit]"}, {"molecule": "COc1ccc2sc(-c3ccccc3OC)c(-c3ccc4c(c3)OCCO4)c2c1", "Potency": "inconclusive: 15.8 µM [inhibitor, single point]"}, {"molecule": "CCn1nc(-c2ccccc2)c(-c2ccccc2)c(C(=O)OCCOC)c1=O", "activity, negative = inhibition": "inactive: -15.3%"}, {"molecule": "Cc1ccc(-c2nn3c(C)nnc3c3ccccc23)cc1S(=O)(=O)NC(C)c1ccccc1", "note": "(stereo not drawn)", "Potency": "inconclusive: 14.1 µM [inhibitor, single point]"}, {"molecule": "Cc1cccc(NC(=O)C2CCCN2C(=O)Oc2ccccc2)c1", "note": "(stereo not drawn)", "Potency": "inconclusive: 5.01 µM [inhibitor, partial curve, poor fit]"}, {"molecule": "CCC(C(=O)NCCC(C)C)n1ccc2cc(S(=O)(=O)N3CCCCC3)ccc21", "note": "(stereo not drawn)", "Potency": "inconclusive: 25.1 µM [inhibitor, single point]"}, {"molecule": "Cc1ccc(NC(=S)NNc2ncc(C(F)(F)F)cc2Cl)c(C)c1", "Potency": "inconclusive: 35.5 µM [inhibitor, single point]"}, {"molecule": "O=C(NNC(=S)Nc1ccccc1)c1ccccc1[N+](=O)[O-]", "activity, negative = inhibition": "inactive: -2.76%"}, {"molecule": "CC1CCC(NC(=O)CN(C)S(=O)(=O)c2cccc3cccnc23)CC1", "note": "(stereo not drawn)", "Potency": "inconclusive: 14.1 µM [inhibitor, single point]"}, {"molecule": "CC1=CC(C)(C)N(C(=O)CSc2nnc(N)s2)c2cc(C)c(C)cc21", "Potency": "inconclusive: 5.01 µM [inhibitor, single point]"}, {"molecule": "CCCCC1=CC2=C(c3ccco3)C(=O)C(C)(OC(=O)c3ccc(OC)cc3)C(=O)C2=CN1CCOC", "note": "(stereo not drawn)", "activity, negative = inhibition": "inactive: 2.68%"}, {"molecule": "Cc1onc(-c2ccccc2)c1C(=O)Nc1sc2c(c1C#N)CCC(C)C2", "note": "(stereo not drawn)", "Potency": "inconclusive: 20 µM [inhibitor, single point]"}, {"molecule": "CN(c1ccccc1C(=O)Nc1ccc(S(=O)(=O)N2CCOCC2)cc1)S(C)(=O)=O", "Potency": "inconclusive: 0.0891 µM [inhibitor, full curve, poor fit]"}, {"molecule": "Cc1ccc(CC(=O)Nc2c(C(=O)N3CCN(c4ccccc4F)CC3)oc3ccccc23)cc1", "Potency": "inconclusive: 15.8 µM [inhibitor, partial curve, poor fit]"}, {"molecule": "CCOC(=O)C1(CC2CCCCO2)CCN(Cc2cc3ccccc3[nH]2)CC1", "note": "(stereo not drawn)", "Potency": "inconclusive: 10 µM [inhibitor, partial curve, poor fit]"}, {"molecule": "CCOc1ccccc1NC(=O)C(C)Sc1nc2c(c(=O)[nH]1)CCCC2", "note": "(stereo not drawn)", "activity, negative = inhibition": "inactive: -1.7%"}, {"molecule": "CC(C)OCCCN1C(=O)c2[nH]nc(-c3ccccc3O)c2C1c1ccc(OCc2ccccc2)cc1", "note": "(stereo not drawn)", "Potency": "inconclusive: 6.31 µM [inhibitor, single point]"}]}]}
